Results as given in PubChem BioAssay AID504339 (National Center for Advancing Translational Sciences (NCATS), 2011).
Screen size: about 390,000 compounds; about 17,000 (4.4%) were called active. The shares of active, inactive and inconclusive entries below differ from those in the screen. Calls follow the shape of the dose curve; as a rule, active = well fitted inhibition curve with a large enough effect; inconclusive = small, poorly fitted or top-dose-only effect; inactive = no such curve, though single readings can be large or run the other way. Potencies beside an inconclusive call are fits to weak or partial responses and may not hold up.

molecular target: Lysine-specific demethylase 4A (Homo sapiens) (UniProt O75164); assay: qHTS Assay for Inhibitors of JMJD2A-Tudor Domain; conditions: AlphaScreen JMJD2A-Tudor / H3K4me3 peptide binding; activity change, negative = inhibition: at 114 µM (top of the series); also: nearly all actives have a fitted effect of over 50% in size
Chain of UniProt O75164 (O75164 whole entry, looked up, the tested form may be a part): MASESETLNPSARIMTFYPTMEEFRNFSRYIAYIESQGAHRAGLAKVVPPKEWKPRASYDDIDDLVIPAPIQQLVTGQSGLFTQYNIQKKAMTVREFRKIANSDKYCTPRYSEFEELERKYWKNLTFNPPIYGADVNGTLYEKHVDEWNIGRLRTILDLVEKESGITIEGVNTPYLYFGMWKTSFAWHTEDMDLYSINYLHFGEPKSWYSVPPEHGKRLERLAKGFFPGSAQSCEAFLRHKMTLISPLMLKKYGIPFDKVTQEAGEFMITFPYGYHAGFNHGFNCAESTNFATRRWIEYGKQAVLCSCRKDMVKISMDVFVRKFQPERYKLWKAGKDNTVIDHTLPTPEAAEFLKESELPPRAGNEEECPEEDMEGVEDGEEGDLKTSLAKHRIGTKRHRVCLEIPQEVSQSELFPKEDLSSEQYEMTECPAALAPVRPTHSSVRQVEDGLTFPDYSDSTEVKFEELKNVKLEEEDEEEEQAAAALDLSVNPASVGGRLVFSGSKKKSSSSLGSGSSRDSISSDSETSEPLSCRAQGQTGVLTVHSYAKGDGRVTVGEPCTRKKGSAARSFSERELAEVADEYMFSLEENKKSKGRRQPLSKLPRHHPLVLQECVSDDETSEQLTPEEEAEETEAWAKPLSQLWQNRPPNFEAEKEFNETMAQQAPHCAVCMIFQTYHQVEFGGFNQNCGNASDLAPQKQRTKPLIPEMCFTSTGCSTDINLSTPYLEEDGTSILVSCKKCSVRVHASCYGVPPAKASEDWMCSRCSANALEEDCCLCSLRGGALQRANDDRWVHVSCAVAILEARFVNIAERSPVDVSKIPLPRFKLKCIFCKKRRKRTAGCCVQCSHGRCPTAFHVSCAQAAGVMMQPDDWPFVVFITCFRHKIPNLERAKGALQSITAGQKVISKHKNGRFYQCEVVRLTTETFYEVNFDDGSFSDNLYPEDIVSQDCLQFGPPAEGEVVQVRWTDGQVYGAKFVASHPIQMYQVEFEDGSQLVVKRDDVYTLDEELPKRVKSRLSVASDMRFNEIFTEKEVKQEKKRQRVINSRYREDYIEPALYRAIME
% is scaled to controls: 0 for no effect and ±100 for the full control effect; potency is read from the fitted curve at half-maximal effect; tags tell the direction and shape of the fitted curve.

Activity change, negative = inhibition, inactive:
COc1cc(SC)ccc1C(=O)N1CCN(S(=O)(=O)/C=C/c2ccccc2)CC1 -16.1%, CCCCCCCC(=O)NNC(=O)CCC(=O)O -0%, CCN(CC)c1ncnc2c1cnn2-c1cc(Cl)ccc1C -13.1%, O=C(Nc1ccc(F)cc1F)C1CCN(c2ncccn2)CC1 -10.4%, N#Cc1nc(-c2ccc([N+](=O)[O-])cc2)oc1N1CCCCC1 -7.58%, COc1ccc(C(=O)CN2CCN(c3cc(C)nc4ccccc34)CC2)cc1 -17.4%, CC1CCCC(C)N1CC(O)COC1CCC(C(C)(C)C)CC1 (stereo not given) -16.1%, COc1ccc2c(c1OC)C(=O)OC2n1c(O)c(N=NC(C)=O)c2ccccc21 (stereo not given) 2.41%, COc1ccc(Cn2c(O)c(C=Nc3ccc(OC)cc3)c3ccccc3c2=O)cc1 -31.4%, Cc1cccc(NC(=O)Cn2nc(-c3ccccc3)c3cnc4ccccc4c32)c1 -14.3%, CCOc1ccc(-n2cc(-c3ccccc3)c3c(NCCc4ccccc4)ncnc32)cc1 -28.1%, Cc1ccc(Nc2ccc3cc(S(=O)(=O)N4CCC(C)CC4)ccc3n2)c(Cl)c1 20.1%, COc1ccc([N+](=O)[O-])cc1N(CC(O)CN1C(=O)NC(C)(C)C1=O)S(=O)(=O)c1ccccc1 (stereo not given) -6.43%, CCc1ccc2nc(N(Cc3cccnc3)C(=O)c3ccc(C#N)cc3)sc2c1 -23.7%, O=C(CCc1ccccc1)NCC(=O)N/N=C/c1ccc(O)cc1O -10.5%, CC(C)(C)OC(=O)N1CCC(NC(=O)c2[nH]cnc2C(=O)Nc2ccon2)CC1 -23.2%, COc1ccc(OC)c(NC(=O)CSc2nc(=O)n(CCN(C)C)c3c2CCC3)c1 -4.87%, Cc1nc(CS(=O)c2ccc(Cl)cc2)cc(N2CCOCC2)n1 (stereo not given) -10.3% [at 11.4 µM], CC[n+]1c(/C=C(/C)SC)sc2ccccc21 -15.1%, CC1(C)CC1C(=O)Nc1ccc([N+](=O)[O-])cc1Br (stereo not given) -18.8%, CCN(CC(=O)Nc1cc(C)nn1-c1nc(C)cc(C)n1)Cc1ccccc1 -11.6%, O=S(=O)(c1ccccc1)[C@@]1(c2ccccc2)C[C@@H]2ON=C(c3cccc(Br)c3)[C@@H]2C1 -6.25%, COc1cc2c(cc1OC)CN(CC(=O)NC(=O)NC1CCCCC1)CC2 -19.9%, CS(=O)(=O)c1cccc(C(=O)Nc2cccc(S(=O)(=O)N3CCCC3)c2)c1 -7.48%, Cc1cn2c(=O)cc(COC(=O)c3ccc(NC(=O)COc4ccccc4C)cc3)nc2s1 -2.65%, Cc1ccc(C(=O)c2cn(Cc3cccc(Cl)c3)c3nc(C)ccc3c2=O)cc1 -29.4%

Potency, active:
COc1cccc(NC(=O)NC2(C(F)(F)F)Oc3ccccc3O2)c1 70.8 µM, CCCn1nnc(NC(=S)NC(=O)CC)n1 2.82 µM, O=C(/C=C/c1ccco1)NC(=S)Nc1ccc(C(=O)O)cc1 35.5 µM, O=C(NCc1n[nH]c(=S)n1-c1cccc(Cl)c1)c1cccs1 20 µM, CCOc1ccccc1/C=N/Nc1nc2ccccc2o1 17.8 µM, C#CCOCCOCCOCCNc1nc(N2CCN(C(=O)[C@H](CCC(=O)O)n3cc(C(N)CO)nn3)CC2)nc(N2CCN(C(=O)[C@H](Cc3ccc(O)cc3)n3cc(C(N)[C@H](C)CC)nn3)CC2)n1 (stereo not given in full) 28.2 µM, CN(C)S(=O)(=O)c1ccc(NCC2COc3ccccc3O2)c([N+](=O)[O-])c1 (stereo not given) 25.1 µM, O=C(CN1CCN(c2ccc(O)cc2)CC1)N(C1CC1)C1CCS(=O)(=O)C1 (stereo not given) 79.4 µM, CC(NC1CCCC1)C(=O)Nc1ccccc1-c1ccccc1 (stereo not given) 2 µM, CC(C)(C)C(=O)Nc1sc2c(c1C(=O)Nc1ccccn1)CCCC2 44.7 µM, COc1cc(C(=O)NC(C)c2ccc(-n3ccnc3)cc2)cc(OC)c1C (stereo not given) 79.4 µM

Potency, inactive:
CCOC(=O)C(CC)Sc1ccc2nnc(-c3cccnc3)n2n1 (stereo not given)

Potency, inconclusive:
O=C(COC(=O)C1CC(=O)N(C2CCCCC2)C1)c1ccc(F)cc1 (stereo not given) 100 µM [inhibitor, partial curve], O=C1c2ccccc2C(=O)C1c1ccc(Br)cc1 35.5 µM [inhibitor, partial curve], CC1(C)C2C/C(=N\O)C(C)(/[N+]([O-])=C/c3cccc([N+](=O)[O-])c3)CC21 (stereo not given) 56.2 µM [inhibitor, partial curve], O=C(NCc1ccccc1)C(=O)Nc1nccs1 28.2 µM [inhibitor, partial curve], O=C(c1ccc(F)cc1F)N(Cc1ccccn1)Cc1ccco1 28.2 µM [inhibitor, full curve], COc1ccc(-c2csc(Nc3ncccc3C)n2)cc1OC 15.8 µM [inhibitor, full curve, poor fit], Brc1cnc2nc(SC/C=C/c3ccccc3)[nH]c2c1 28.2 µM [inhibitor, partial curve], CS(=O)(=O)N1CCC(C(=O)N2CCN(c3ccccc3F)CC2)CC1 20 µM [inhibitor, full curve], Cc1nnc(SCc2ccccc2)nc1/C=C/NOCc1ccc(Cl)cc1Cl 35.5 µM [inhibitor, partial curve], CN(C)NC(=O)C(NC(=O)c1ccc(N)cc1)C12CC3CC(CC(C3)C1)C2 (stereo not given) 50.1 µM [inhibitor, partial curve], COc1ccc(OC)c(Nc2cc(C)c3ccccc3n2)c1 50.1 µM [inhibitor, partial curve], Cc1ccc(CN(C(=O)c2ccc(Cl)c([N+](=O)[O-])c2)C2CCS(=O)(=O)C2)o1 (stereo not given) 17.8 µM [inhibitor, full curve], Cc1cc(OCC(=O)Nc2ccc(N3CCN(C(=O)c4ccco4)CC3)cc2)cc(C)c1Cl 63.1 µM [inhibitor, partial curve], CCOc1ccc(-c2nc(N)ncc2-c2ccc(Cl)cc2)c(O)c1 35.5 µM [inhibitor, partial curve], COc1ccc(CCN(C)C(=O)COC(=O)/C=C/c2ccc(C)o2)cc1OC 22.4 µM [inhibitor, full curve], CCC(=O)N(CCC(c1ccc(C)cc1)c1ccco1)Cc1ccco1 (stereo not given) 56.2 µM [inhibitor, partial curve], O=S(=O)(NCCC(c1ccc(F)cc1)c1ccco1)c1ccccc1 (stereo not given) 20 µM [inhibitor, partial curve], COC(=O)c1ccccc1Nc1cc(C)nc2nc(C)nn12 20 µM [inhibitor, single point], Cc1ccc(S(=O)(=O)Nc2ccccc2C(=O)Nc2nc(-c3ccc(F)cc3)cs2)cc1 89.1 µM [inhibitor, partial curve], Cc1ccc(NC2(C#N)C(=O)Nc3ccccc32)cc1C (stereo not given) 44.7 µM [inhibitor, partial curve], COc1ccc(OCc2nc(C#N)c(N3CCN(c4ccc(OC)cc4)CC3)o2)cc1 8.91 µM [inhibitor, full curve, poor fit], CCN1C(=O)/C(=C\N2CCN(c3ccc(F)cc3)CC2)SC1=S 25.1 µM [inhibitor, full curve], COc1cc(OC)c(-n2c(C)cc(C=O)c2C)cc1Cl 70.8 µM [inhibitor, partial curve, poor fit], CCOC(=O)/C(C#N)=C/c1c(N2CCCCCC2)nc2ccccn2c1=O 56.2 µM [inhibitor, partial curve], CCCS(=O)(=O)c1c(S(=O)(=O)CCC)c2c(C)cccn2c1C(=O)OC 89.1 µM [inhibitor, single point], CCOC(=O)c1ccc(CC(=O)c2oc3cc(O)ccc3c2C)o1 56.2 µM [inhibitor, partial curve], Cc1cc(C)nc(SCC(=O)NC2=NC(=O)C(C)S2)n1 (stereo not given) 89.1 µM [inhibitor, partial curve], Cc1ccc(C(=O)c2c(NC(=O)c3ccccc3C)sc(C)c2C)cc1 100 µM [inhibitor, partial curve, poor fit], Cc1ccc(CNc2ccc3c(c2)ncn3C(C)C)cc1 50.1 µM [inhibitor, partial curve], Cc1nn(-c2ccccc2)c(N)c1N=Nc1cccc(S(=O)(=O)N2CCOCC2)c1 28.2 µM [inhibitor, full curve], COc1cccc(CN2CC(C(=O)NCCc3ccc(C)s3)CCC2=O)c1 (stereo not given) 3.55 µM [inhibitor, partial curve, poor fit], CCCCNC(=O)c1nn(C)c2c1CSc1ccccc1-2 12.6 µM [inhibitor, full curve], c1ccc(Nc2cc(Nc3ccccc3)[nH]n2)cc1 56.2 µM [inhibitor, partial curve], O=[N+]([O-])c1cccnc1N1CCCCC1 89.1 µM [inhibitor, partial curve], CN(C)S(=O)(=O)c1cccc(-c2nnc(SCC(=O)NCCCCCC(=O)O)n2-c2ccc(F)cc2)c1 35.5 µM [inhibitor, single point], Nn1c(Cc2cccc3ccccc23)nnc1SCC(=O)NCC1CCCO1 (stereo not given) 35.5 µM [inhibitor, single point], Cn1cccc1Cc1nnc(SCC(=O)Nc2ccc3c(c2)OCCO3)n1-c1ccc(F)cc1 44.7 µM [inhibitor, partial curve]
